{"source": "PubChem BioAssay (Tox21)", "note": "Where “and” joins values, the source holds several entries; their conditions need not be identical. Equal entries are not always repeated. Inconclusive means that the source gave no clear call. Such entries were picked first, then a sample of the others. Entries that show only a call come without a potency. Potencies beside an inconclusive call are fits to weak or partial responses and may not hold up. Calls of active or inactive are those of the source. Calls follow the shape of the dose curve; as a rule, active = well fitted activation curve with a large enough effect in the signal ratio in the repeat runs (not every such curve was filed as active); inconclusive = weak or mixed curves; inactive = flat fitted curve, though single readings scatter; the % refers to the signal ratio. Potency is read from the fitted curve at half-maximal effect; tags tell the direction and shape of the fitted curve or compound fluorescence and quenching."}
{"experiment": "p53 small molecule agonists, cell-based qHTS assay (AID 1963582)", "conditions": "HCT-116 p53RE-bla reporter, beta-lactamase FRET ratio, 16 h; activation: at 66 µM (top of the series) unless noted", "source_text": "National Center for Advancing Translational Sciences [NCATS]\nDivision of Preclinical Innovation [DPI]\nU.S. Environmental Protection Agency [EPA]\nNational Institutes of Environmental Health Sciences [NIEHS]\nNational Toxicology Program [NTP]\nU.S. Food and Drug Administration [FDA]\np53, a tumor suppressor protein, is activated following cellular insult, including DNA damage and other cellular stresses. The activation of p53 regulates cell fate by inducing DNA repair, cell cycle arrest, apoptosis, or cellular senescence. The activation of p53, therefore, is a good indicator of DNA damage and other cellular stresses. […] The activation of the reporter gene under culture conditions can be detected by fluorescence intensity. This cell line was used to screen the Tox21 10K compound library in a 1536-well plate format and to identify agonists that activate the p53 signaling pathway.\nTox21 Assay Protocol Summary:\nThe p53RE-bla cells were dispensed at 4,000 cells/5 ul/well in 1536-well black wall/clear bottom plates using a Multidrop dispenser. After the assay plates were incubated at a 37 C/5% CO2 incubator for 5 hours, 23 nL of compounds dissolved in DMSO, positive controls or DMSO only was transferred to the assay plate by a pin tool. The plates were incubated at 37 C for 16 hours. After 1 uL of LiveBLAzerTM B/G FRET substrate was added using a Flying Reagent Dispenser, the plates were incubated at room temperature for 2 hours, and fluorescence intensity was measured by an Envision plate reader."}
{"smiles": "CC(C)SCc1ccco1", "Potency": "inactive"}
{"smiles": "CN1CCN(Cc2cc(-c3ccc4[nH]c(=O)oc4c3)co2)[C@@H](c2ccc(F)cc2)C1", "Potency": "inconclusive: 22.1 µM [rising, partial curve]"}
{"smiles": "CCc1ccc2c(c1)C(=O)c1ccccc1C2=O", "Potency": "inactive"}
{"smiles": "Cc1onc(-c2c(Cl)cccc2Cl)c1C(=O)Cl", "Potency": "inactive"}
{"smiles": "CC(=O)c1ccccc1O", "Potency": "inactive"}
{"smiles": "NCCCOCCOCCOCCCN", "Potency": "inconclusive: 51.3 µM [fluorescent, single point]"}
{"smiles": "CCCCCCCCSCc1cc(C)c(O)c(CSCCCCCCCC)c1", "Potency": "inconclusive: 40.8 µM [activator, partial curve]"}
{"smiles": "COC(=O)C1=C(C)NC(C)=C(C(=O)OC)C1c1ccccc1[N+](=O)[O-]", "Potency": "inconclusive: 20.5 µM [rising, full curve, poor fit]"}
{"smiles": "COCCc1ccc(OCC(O)CNC(C)C)cc1", "note": "(stereo not given)", "Potency": "inactive"}
{"smiles": "c1c[nH]cn1", "Potency": "inactive"}
{"smiles": "CC1(C)CCC(C)(C)c2cc(C(=O)Nc3ccc(C(=O)O)cc3)ccc21", "Potency": "inconclusive: 51.3 µM [falling, single point]"}
{"smiles": "CC(C)(C)C(=O)NCCCC(=O)O", "Potency": "inactive"}
{"smiles": "O=c1[nH]cc(F)c(=O)[nH]1", "Potency": "inconclusive: 42.3 µM [activator, partial curve] and active: 2.63 µM and active: 7.93 µM"}
{"smiles": "CC(=O)c1ccc[nH]1", "Potency": "inactive"}
{"smiles": "CCC(C)c1cc([N+](=O)[O-])cc([N+](=O)[O-])c1OC(=O)OC(C)C", "note": "(stereo not given)", "Potency": "inconclusive: 2.89 µM [fluorescent, partial curve]"}
{"smiles": "O=C(O)CC(O)C(=O)O", "note": "(stereo not given)", "Potency": "inactive"}
{"smiles": "CCOc1cc(OCC)c(C(C)=O)cc1OCC", "Potency": "inactive"}
{"smiles": "CCCCC1CCC(=O)O1", "note": "(stereo not given)", "Potency": "inactive"}
{"smiles": "CC(C)=CCC/C(C)=C/CC/C(C)=C/C(=O)OCC(=O)[C@@]1(O)CC[C@H]2[C@@H]3CCC4=CC(=O)C=C[C@]4(C)[C@H]3[C@@H](O)C[C@@]21C", "Potency": "inconclusive: 3.54 µM [rising, full curve]"}
{"smiles": "CC1=CC[C@H](CC=O)C1(C)C", "Potency": "inactive"}
{"smiles": "CC(=O)c1ccc2c(c1)[C@H](NC(=O)c1ccc(F)cc1)[C@@H](O)C(C)(C)O2", "Potency": "inactive"}
{"smiles": "CC(=O)O[C@@H]1C(=O)O[C@@H]2[C@H]1OC(=O)[C@@H]2OC(C)=O", "Potency": "inconclusive: 22.3 µM [activator]"}
{"smiles": "COC(=O)c1ccc(OC)cc1", "Potency": "inactive"}
{"smiles": "CC1=C(/C=C/C(C)=C/C=C/C(C)=C/C=O)C(C)(C)CCC1", "Potency": "inconclusive: 51.1 µM"}
{"smiles": "Cc1oc(-c2ccccc2)nc1CCOc1ccc(C[C@H](Nc2ccccc2C(=O)c2ccccc2)C(=O)O)cc1", "Potency": "inconclusive: 40.8 µM [falling, partial curve]"}
{"smiles": "O=C(O)c1cc(-c2ccccc2)nc2ccccc12", "Potency": "inconclusive: 21.2 µM [rising, partial curve, poor fit] and inconclusive: 14.1 µM [rising, partial curve, poor fit]"}
{"smiles": "CN(CCCN1c2ccccc2CCc2ccccc21)CC(=O)c1ccc(Cl)cc1", "Potency": "inconclusive: 3.97 µM [rising, partial curve, poor fit]"}
{"smiles": "CC1CCCCC1", "Potency": "inactive"}
{"smiles": "O=C(Nc1ccc(Cl)cc1)Nc1ccc(Cl)c(C(F)(F)F)c1", "Potency": "inconclusive: 22.3 µM [falling, single point]"}
{"smiles": "CC(C)CC(C)(N)C#N", "note": "(stereo not given)", "Potency": "inactive"}
{"smiles": "CN(C)c1ccc(C(=N)c2ccc(N(C)C)cc2)cc1", "Potency": "inconclusive: 16 µM [fluorescent, partial curve] and inconclusive: 3.5 µM [activator]"}
{"smiles": "CCCCCCCCCCCCCCCCCC(=O)OCCCCCCCCCCCCCC(C)C", "Potency": "inactive"}
{"smiles": "CC1(C)[C@H](C(=O)O)N2C(=O)C[C@H]2S1(=O)=O", "Potency": "inactive"}
{"smiles": "CNC(=O)Oc1ccc2c(c1)[C@]1(C)CCN(C)[C@@H]1N2C", "Potency": "inactive"}
{"smiles": "CCc1ncc(C)[nH]1", "Potency": "inactive"}
{"smiles": "CCCSS/C(CCO)=C(\\C)N(C=O)Cc1cnc(C)nc1N", "Potency": "inconclusive: 17.8 µM [rising, partial curve, poor fit]"}
{"smiles": "O=C(O)CCCCCCCCCC(=O)O", "Potency": "inconclusive: 40.8 µM [rising, partial curve, poor fit]"}
{"smiles": "C=C(C)C(=O)OCCC[Si](OC)(OC)OC", "Potency": "inactive"}
{"smiles": "Oc1ccc(Oc2ccccc2)cc1", "Potency": "inconclusive: 30.7 µM [activator, partial curve, poor fit]"}
{"smiles": "C[C@@]12C(=O)OC(=O)[C@]1(C)C1CCC2O1", "Potency": "inconclusive: 5.61 µM [activator, partial curve]"}
